Results from the supplement of paper PMC4967469.
Lines with a small IC50 respond at low doses; where the fit passes the top or lowest dose, that dose stands as a limit. AUC sums up the same curve from the lowest dose to the 256-fold higher top dose; values near 1 show little effect. For some of these results: Any top dose called inferred comes from the curve model; the source does not state it. For some of these results: An entry number marks a drug with two screens in the source, which often give different values.

How the values were obtained:
Assay in all cases: Viability of human cancer cell lines after 72 h of drug (GDSC screen)
[1] = compound: C/C=C(/C)C(=O)O[C@H]1C(C)=C2[C@H]([C@@H]1OC(=O)CCCCCCC)[C@@](C)(OC(C)=O)C[C@H](OC(=O)CCC)[C@@]1(O)[C@H]2OC(=O)[C@@]1(C)O [Thapsigargin]; settings: top dose 0.512 µM; top dose inferred
Procedure: (§1)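 Human cancer cell lines in 384-well plates, medium with 10% serum, drug for 72 h over a 256-fold dose range (nine 2-fold or five 4-fold steps up to the top dose). Adherent lines were fixed and stained with the nucleic acid dye Syto60, suspension lines read with resazurin; signal relative to control wells, capped at 0 and 100%. One two-parameter sigmoid per drug and line, fitted in a mixed model over all curves with the slope shared within a line.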

[2] = compound: C=CC(=O)Nc1cc(-n2c(=O)ccc3cnc4ccc(-c5cn[nH]c5)cc4c32)ccc1C [QL-X-138]; settings: top dose 10.24 µM; top dose inferred
Procedure: as §1

[3] = compound: CCn1c(-c2nonc2N)nc2cnc(Oc3cccc(NC(=O)c4ccc(OCCN5CCOCC5)cc4)c3)cc21 [GSK269962A]; settings: top dose inferred
Procedure: as §1

[4] = compound: COc1cc(N2CCC(O)CC2)ccc1Nc1cc(Nc2ccccc2S(=O)(=O)C(C)C)c2cc[nH]c2n1 [MPS-1-IN-1]; settings: top dose 20 µM; top dose inferred
Procedure: as §1

[5] = compound: COc1cc(O)c2c(c1)/C=C/C[C@H](O)[C@H](O)C(=O)/C=C\C[C@H](C)OC2=O [(5Z)-7-Oxozeaenol]; settings: top dose 10 µM; top dose inferred
Procedure: as §1

[6] = compound: COc1cc2ncnc(-n3nc(-c4ccccn4)nc3N)c2cc1OC [CP466722]; settings: top dose 16 µM; top dose inferred
Procedure: as §1

[7] = compound: COc1nc(C)cnc1NS(=O)(=O)c1cccnc1-c1ccc(-c2nnco2)cc1 [Zibotentan]; settings: top dose 20 µM; top dose inferred
Procedure: as §1

[8] = compound: C[C@]1(c2nc3c(C(N)=O)cccc3[nH]2)CCCN1 [ABT-888]; settings: top dose 5 µM; top dose inferred
Procedure: as §1

[9] = compound: Cc1ccc(-c2c(C(=O)CCl)n(CCCO)c3ncnc(N)c23)cc1 [CMK]; settings: top dose 4 µM; top dose inferred
Procedure: as §1

[10] = compound: Cc1ccc(F)c(NC(=O)Nc2ccc(-c3cccc4[nH]nc(N)c34)cc2)c1 [ABT-869]; settings: top dose 1.024 µM; top dose inferred
Procedure: as §1

[11] = compound: Cc1cnc(-c2cnc(NCCNc3ccc(C#N)cn3)nc2-c2ccc(Cl)cc2Cl)[nH]1 [CHIR-99021]
Procedure: as §1

[12] = compound: O=c1cc(-c2cccc3c2Sc2ccccc2S3)oc(N2CCOCC2)c1 [KU-55933]; settings: top dose 10 µM
Procedure: as §1

[13] = top dose 2.5 µM, screen: GDSC drug entry 127
[14] = top dose 5 µM, screen: GDSC drug entry 1192
[15] = top dose 2.56 µM, screen: GDSC drug entry 154
[16] = top dose 10 µM, screen: GDSC drug entry 1241, top dose inferred

| Cell Line | AUC [1] | IC50 [1] [nM] | AUC [2] | IC50 [2] [µM] | AUC [3, 13] | IC50 [3, 13] [nM] | AUC [3, 14] | IC50 [3, 14] [nM] | AUC [4] | IC50 [4] [µM] | AUC [5] | IC50 [5] [nM] | AUC [6] | IC50 [6] [µM] | AUC [7] | IC50 [7] [µM] | AUC [8] | IC50 [8] [µM] | AUC [9] | IC50 [9] [µM] | AUC [10] | IC50 [10] [nM] | AUC [11, 15] | IC50 [11, 15] [µM] | AUC [11, 16] | IC50 [11, 16] [µM] | AUC [12] | IC50 [12] [µM] |
| --- | --- | --- | --- | --- | --- | --- | --- | --- | --- | --- | --- | --- | --- | --- | --- | --- | --- | --- | --- | --- | --- | --- | --- | --- | --- | --- | --- | --- |
| IST-MEL1 (melanoma, adherent) | 0.145 | < 2 | 0.964 | > 10.2 | 0.942 | > 2500 | 0.846 | 4750 | 0.829 | 15.8 | 0.552 | 889 | 0.785 | 8.31 | 0.978 | > 20 | 0.981 | > 5 | 0.914 | > 4 | 0.972 | > 1020 | 0.962 | > 2.56 | 0.877 | > 10 | 0.935 | > 10 |
| JVM-2 (lymphoid neoplasm, suspension) | 0.968 | > 512 | 0.806 | 6.72 | 0.941 | > 2500 | 0.807 | 3310 | 0.908 | > 20 | 0.576 | 1060 | 0.906 | > 16 | 0.973 | > 20 | 0.9 | > 5 | 0.975 | > 4 | 0.935 | > 1020 | 0.974 | > 2.56 | 0.958 | > 10 | 0.93 | > 10 |
| KOPN-8 (B-cell leukaemia, suspension) | 0.182 | 4.31 | 0.359 | 0.278 |  |  | 0.863 | 3340 | 0.832 | 10.3 | 0.669 | 1710 | 0.622 | 2.05 | 0.982 | > 20 | 0.99 | > 5 | 0.752 | 1.16 | 0.98 | > 1020 | 0.976 | > 2.56 | 0.961 | > 10 | 0.953 | > 10 |
| KURAMOCHI (ovary, adherent) | 0.141 | < 2 | 0.862 | > 10.2 | 0.952 | > 2500 | 0.98 | > 5000 | 0.939 | > 20 | 0.799 | 5680 | 0.872 | > 16 | 0.981 | > 20 | 0.984 | > 5 | 0.948 | > 4 | 0.941 | > 1020 | 0.945 | > 2.56 | 0.871 | > 10 | 0.955 | > 10 |
| L-363 (myeloma, suspension) | 0.188 | 4.48 | 0.554 | 0.878 | 0.967 | > 2500 | 0.719 | 1180 | 0.821 | 9.62 | 0.613 | 1220 | 0.75 | 4.63 | 0.99 | > 20 | 0.984 | > 5 | 0.868 | 2.85 | 0.99 | > 1020 | 0.991 | > 2.56 | 0.858 | 6.48 | 0.943 | > 10 |
| L-1236 (Hodgkin lymphoma, suspension) | 0.835 | 266 | 0.786 | 3.7 | 0.992 | > 2500 | 0.958 | > 5000 | 0.987 | > 20 | 0.795 | 3850 | 0.819 | 7.31 | 0.992 | > 20 | 0.992 | > 5 | 0.983 | > 4 | 0.991 | > 1020 | 0.985 | > 2.56 | 0.851 | 5.88 | 0.945 | > 10 |
| LB831-BLC (bladder, adherent) | 0.226 | 5.01 | 0.786 | 4.5 | 0.843 | 1820 | 0.896 | > 5000 | 0.958 | > 20 | 0.752 | 3350 | 0.92 | > 16 | 0.979 | > 20 | 0.976 | > 5 | 0.978 | > 4 | 0.987 | > 1020 | 0.92 | > 2.56 | 0.947 | > 10 | 0.969 | > 10 |
| LS-411N (large intestine, adherent) | 0.399 | 15.9 | 0.702 | 2.7 | 0.948 | > 2500 | 0.862 | > 5000 | 0.789 | 11 | 0.612 | 1360 | 0.778 | 7.98 | 0.977 | > 20 | 0.946 | > 5 | 0.915 | > 4 | 0.975 | > 1020 | 0.965 | > 2.56 | 0.959 | > 10 | 0.969 | > 10 |
| LXF-289 (lung adenocarcinoma, adherent) | 0.043 | < 2 | 0.821 | 5.78 | 0.937 | > 2500 | 0.824 | 2910 | 0.926 | > 20 | 0.831 | 6200 | 0.717 | 4.06 | 0.985 | > 20 | 0.973 | > 5 | 0.924 | > 4 | 0.982 | > 1020 | 0.97 | > 2.56 | 0.885 | > 10 | 0.892 | > 10 |
